Test results as given in patent US20250163125A1 (Pfizer, published 2025).
Substitutions are numbered along the chain they refer to. Each block holds one binder with its values, some of them ahead of it.

What was measured:
[1] = biological target: T1, recombinant human CD2 (human, UniProt P06729 25-209, biotinylated (site not stated)); experiment: SPR (Biacore T200): biotinylated CD2 captured on a streptavidin chip, LFA3-Fc variant injected, equilibrium binding model; n=1-3 exp
T1 construct: It was captured on a streptavidin chip in SPR; also called hCD2-biotin; human recombinant CD2
T1 sequence: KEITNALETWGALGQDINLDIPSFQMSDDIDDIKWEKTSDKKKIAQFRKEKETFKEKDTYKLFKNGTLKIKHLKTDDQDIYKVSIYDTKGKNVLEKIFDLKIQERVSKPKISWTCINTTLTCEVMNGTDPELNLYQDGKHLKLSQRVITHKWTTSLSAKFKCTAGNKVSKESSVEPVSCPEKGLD

[2] = biological target: T2, recombinant cynomolgus CD2 (cynomolgus monkey, UniProt Q6SZ61 25-209, limits assumed, biotinylated (site not stated)); experiment: SPR, cyno recombinant CD2
T2 construct: also called cyno recombinant CD2; cyno CD2
T2 sequence (looked up): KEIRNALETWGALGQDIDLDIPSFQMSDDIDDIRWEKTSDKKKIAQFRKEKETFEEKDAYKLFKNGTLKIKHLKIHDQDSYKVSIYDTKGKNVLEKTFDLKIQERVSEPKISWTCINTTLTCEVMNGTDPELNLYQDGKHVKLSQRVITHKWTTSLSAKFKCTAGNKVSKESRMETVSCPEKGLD

[3] = biological target: T2, recombinant cynomolgus CD2; experiment: SPR (Biacore T200), biotinylated CD2 on SA chip, equilibrium model
[4] = biological target: T1, recombinant human CD2; experiment: as above
[5] = biological target: T2, recombinant cynomolgus CD2; experiment: SPR (Biacore T200): biotinylated cyno CD2 captured on a streptavidin chip, LFA3-Fc variant injected, equilibrium binding model; average of triplicate measurements
[6] = biological target: T1, recombinant human CD2; experiment: SPR (Biacore T200): biotinylated human CD2 captured on a streptavidin chip, LFA3-Fc variant injected, equilibrium binding model; average of triplicate measurements
[7] = biological target: T1, recombinant human CD2; experiment: SPR (Biacore T200): biotinylated CD2 captured on a streptavidin chip, LFA3-Fc variant injected, equilibrium binding model; n=4-7
[8] = biological target: T2, recombinant cynomolgus CD2; experiment: Biacore CD2 binding
[9] = biological target: T3, rat CD2 (rat, UniProt P08921 23-202, limits assumed); experiment: Biacore CD2 binding
T3 sequence (looked up): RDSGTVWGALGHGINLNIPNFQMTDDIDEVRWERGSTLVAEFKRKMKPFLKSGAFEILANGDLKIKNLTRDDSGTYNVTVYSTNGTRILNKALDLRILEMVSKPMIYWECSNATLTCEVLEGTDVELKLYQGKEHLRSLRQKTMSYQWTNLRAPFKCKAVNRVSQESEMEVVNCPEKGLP

[10] = biological target: T4, mouse CD2 (mouse, UniProt P08920 23-203, limits assumed); experiment: Biacore CD2 binding
T4 sequence (looked up): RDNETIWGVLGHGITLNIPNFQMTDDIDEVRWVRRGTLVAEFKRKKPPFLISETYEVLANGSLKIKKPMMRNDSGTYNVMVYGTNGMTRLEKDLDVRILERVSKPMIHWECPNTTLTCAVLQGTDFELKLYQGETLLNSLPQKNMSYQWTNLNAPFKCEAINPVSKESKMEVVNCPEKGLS

B1: LFA3-Fc WT (wild type LFA3-Fc fusion protein) (Fc fusion)
chain: FSQQIYGVVYGNVTFHVPSNVPLKEVLWKKQKDKVAELENSEFRAFSSFKNRVYLDTVSGSLTIYNLTSSDEDEYEMESPNITDTMKFFLYV[human IgG1 Fc not shown]
notes: also called WT LFA3-Fc; LFA3-WT
Kd [1]: 1410 nM | Kd [2]: 1500 nM | Kd [3]: 1500 nM | Kd [4]: 1410 to 1470 nM | Kd [5]: 1500 nM | Kd [6]: 1470 nM | Kd [7]: 1410 nM

B2: CM3d1-Pfe (Fc fusion)
LFA3 domain-Fc fusion chain: FSQQIYGVVYGNVTFHVPSNVPLKEVLWKKQKDKVVEFENSEVRAFSSFKNRVYLDTVSGSLTIYNLTSSDEDEYEMESRNPYRDFKFFLYVL[human IgG1 Fc not shown]
notes: Second-generation Loop library design
Kd [1]: 88 nM

B5: CM1d1-Pfe (Fc fusion)
LFA3 domain-Fc fusion chain: B2 LFA3 domain-Fc fusion chain with P82G, Y83G, R84P
notes: as for B2
Kd [1]: 130 nM

B6: M4d1-Pfe (Fc fusion)
LFA3 domain-Fc fusion chain: B2 LFA3 domain-Fc fusion chain with A45V, M77F, R80P, P82I, Y83T, R84D, D85T
Kd [1]: 750 nM | Kd [7]: 750 nM

B7: LFA3-Fc M1d1 (M1d1 LFA3-Fc fusion protein) (Fc fusion)
chain: B2 LFA3 domain-Fc fusion chain with R80P, P82I, Y83T, R84D, D85T
notes: also called M1d1-Pfe
Kd [2]: 1060 nM | Kd [3]: 1060 nM | Kd [5]: 1060 nM | Kd [6]: 1080 nM | Kd [8]: 1350 nM | binding result [9]: no binding | binding result [10]: no binding

B11: M7-d1-Pfe (Fc fusion)
LFA3 domain-Fc fusion chain: B2 LFA3 domain-Fc fusion chain with R80P, P82I, Y83T, R84D, D85T, F86M
Kd [7]: 920 nM

The remaining binders from weak to strong by Kd [1], led by results:

Kd [1]: 100 nM
B8: CM2d1-Pfe (Fc fusion)
LFA3 domain-Fc fusion chain: B2 LFA3 domain-Fc fusion chain with D85R
notes: as for B2

Kd [1]: 82 nM
B4: ML1d1-Pfe (Fc fusion)
LFA3 domain-Fc fusion chain: B2 LFA3 domain-Fc fusion chain with S79G, N81Y, R84E, D85S
notes: Second-generation Loop library clone

Kd [1]: 63 nM
B10: CM5d1-Pfe (Fc fusion)
LFA3 domain-Fc fusion chain: B2 LFA3 domain-Fc fusion chain with R80W, D85R
notes: as for B2

Kd [1]: 61 nM
B9: CM6d1-Pfe (Fc fusion)
LFA3 domain-Fc fusion chain: B2 LFA3 domain-Fc fusion chain with R80W
notes: as for B2

Kd [1]: 52 nM
B3: ML3d1-Pfe (Fc fusion)
LFA3 domain-Fc fusion chain: B2 LFA3 domain-Fc fusion chain with S79A, N81Y, D85Q
notes: as for B4
